Data from the BET-seq Pho4 binding data (Le et al. 2018).
This is one part of the list. The energies were worked out here from pooled read counts, against the library average; single values are noisy.

Molecular target: T1, Pho4 (S. cerevisiae) (UniProt P07270)
T1 sequence: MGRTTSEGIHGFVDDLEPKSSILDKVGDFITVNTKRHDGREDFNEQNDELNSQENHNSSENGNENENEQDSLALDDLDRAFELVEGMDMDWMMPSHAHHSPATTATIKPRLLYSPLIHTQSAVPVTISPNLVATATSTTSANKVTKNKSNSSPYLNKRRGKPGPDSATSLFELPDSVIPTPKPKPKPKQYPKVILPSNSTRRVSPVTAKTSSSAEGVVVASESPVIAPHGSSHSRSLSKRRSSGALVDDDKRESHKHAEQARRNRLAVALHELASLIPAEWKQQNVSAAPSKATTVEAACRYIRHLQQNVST
Assay: relative binding free energy (BET-seq); higher = weaker binding
Conditions: reference: library average

Relative binding free energy, 0.06 kcal/mol:
GTGTACACGTGTGAGA
GGCAGCACGTGTTTGT
GTATGCACGTGAGGCG
GAATGCACGTGGTGGC
TAGGTCACGTGCGGGA
GAAAGCACGTGTGTTT

Relative binding free energy, 0.26 kcal/mol:
CTTTGCACGTGTAGGC
TTGTTCACGTGCATTC
TTTTACACGTGCGAGG

Relative binding free energy, -0.06 kcal/mol:
GTGGGCACGTGACGTA
TAAGGCACGTGATTAG
TTTCACACGTGGGTGC

Relative binding free energy, -0.33 kcal/mol:
GGGGGCACGTGGCATA

Relative binding free energy, 0.05 kcal/mol:
CTGCGCACGTGATGGG
TGAGGCACGTGGAAAT
GGCTCCACGTGTTGGT

Relative binding free energy, 0.3 kcal/mol:
TAGTTCACGTGCAGAG
TGGTACACGTGAAAGA

Relative binding free energy, 0.47 kcal/mol:
GTTTACACGTGAAATT

Relative binding free energy, -0.03 kcal/mol:
TGGAGCACGTGTCTTT

Relative binding free energy, -0.13 kcal/mol:
TGTGGCACGTGTGCTG
GTATGCACGTGCTGGG
TACAGCACGTGTTGTT

Relative binding free energy, 0.21 kcal/mol:
TGGAGCACGTGAGGAT
GTTGTCACGTGATCAT
AAATTCACGTGAGGGA
AGGACCACGTGAAGGG
AAGTTCACGTGGCAGT
CTATTCACGTGTGGGA

Relative binding free energy, 0.24 kcal/mol:
GTAGTCACGTGATAGT
TAATTCACGTGTTAGT
GGGTCCACGTGTTTCG
AGAGACACGTGTGCGA
CAGTACACGTGATTGG

Relative binding free energy, -0.26 kcal/mol:
ACGGACACGTGGGTGT
AGGTGCACGTGGCGTG

Relative binding free energy, 0.42 kcal/mol:
GTCGTCACGTGTGGCC

Relative binding free energy, 0.32 kcal/mol:
ATATTCACGTGAGATT

Relative binding free energy, 0.11 kcal/mol:
CTGGGCACGTGAGTAA
CGGGTCACGTGTGGGG
GGTATCACGTGCCGGG
GGTGTCACGTGTGACA
CGAGACACGTGTGTGT

Relative binding free energy, -0.02 kcal/mol:
TATGCCACGTGTCGGT
AAGTGCACGTGAGCGT
TTAGACACGTGCGGGG
TAGGGCACGTGACGTT
GATGTCACGTGCATGG

Relative binding free energy, -0.3 kcal/mol:
CAGGGCACGTGGGGCT
GTTCGCACGTGGGGTC

Relative binding free energy, -0.14 kcal/mol:
TCTGGCACGTGGTGCA
TGTGCCACGTGGAGAG
GTTGCCACGTGTGTTA
GCTAGCACGTGGGTGT
ACGAACACGTGGTGTG
TATAGCACGTGGTTTG
GGGCACACGTGCGTGG

Relative binding free energy, 0.04 kcal/mol:
TCTGACACGTGGGTAA
ATGGCCACGTGTTGGT
CGGGTCACGTGCGGGC
GTGTCCACGTGGAGGG
AGCAGCACGTGTGGAG
CTTGGCACGTGATGCG
ATTCACACGTGGTGAT
TGGCTCACGTGGGCTG

Relative binding free energy, -0.04 kcal/mol:
ATTGACACGTGCGTTT
TGAGACACGTGATTGG
TTTGTCACGTGGAGTG
TGTTACACGTGGGGCT
CGTGGCACGTGTGTCA
AGTTGCACGTGCGTCG
TAGACCACGTGTTGGG

Relative binding free energy, 0.27 kcal/mol:
ATAGTCACGTGAGGAG

Relative binding free energy, -0.1 kcal/mol:
TGTGCCACGTGTCATG
TTCACCACGTGTTGGT
CTGGACACGTGGCGGT
TCGTGCACGTGGGCGG

Relative binding free energy, 0.1 kcal/mol:
GTAGACACGTGTTGGT
AGCGGCACGTGAGTGG
TAGTGCACGTGTTTAT
ATATACACGTGGATGG
TTGTCCACGTGTATGC
TTAGACACGTGTGGTC

Relative binding free energy, -0.23 kcal/mol:
AAGGACACGTGGGCGT
TTAAGCACGTGGGCGA

Relative binding free energy, -0.08 kcal/mol:
TACTGCACGTGGTTGA
ATATGCACGTGGGAAG
CTGAGCACGTGGTAGA
TTTCGCACGTGTGGCG

Relative binding free energy, 0.39 kcal/mol:
GCGGGCACGTGAAATT
TGGTTCACGTGTGAAG
GGGCTCACGTGATGTG
TTTAACACGTGAATTT

Relative binding free energy, 0.35 kcal/mol:
TGACACACGTGAAGGG
TTGTTCACGTGATAGC
TGGGTCACGTGAAGAT
AGGATCACGTGAGTTG
TAATTCACGTGTGCTA

Relative binding free energy, 0.46 kcal/mol:
GGTTTCACGTGAGAGC

Relative binding free energy, 0.08 kcal/mol:
ACTTGCACGTGTTGGT
TGATACACGTGGATGT
TGTTCCACGTGTTATG

Relative binding free energy, -0.12 kcal/mol:
ACGGGCACGTGTTGTG

Relative binding free energy, 0.13 kcal/mol:
GGCTCCACGTGTTGTT
ATCGTCACGTGTTTTT
AGCTGCACGTGAGGGA
GGAAGCACGTGAAGGG
CGGGCCACGTGTAGGA

Relative binding free energy, 0.12 kcal/mol:
ATAGACACGTGTTAGG

Relative binding free energy, 0.36 kcal/mol:
ATTTTCACGTGATCAA

Relative binding free energy, 0.09 kcal/mol:
TCTTTCACGTGCTTTT
AGTGTCACGTGGATGG
TCTAACACGTGTGGGT
TTCCGCACGTGTTGGT
TTTCACACGTGTATTA

Relative binding free energy, -0.17 kcal/mol:
CTGTGCACGTGGTGAG

Relative binding free energy, 0.22 kcal/mol:
TGGATCACGTGATGCT
AGTTTCACGTGCGCTT

Relative binding free energy, 0.01 kcal/mol:
CAATGCACGTGTTGGT

Relative binding free energy, 0.25 kcal/mol:
TTTTTCACGTGTATGT
ATATTCACGTGTGCAT
AAGGTCACGTGTTTTT
AGGTGCACGTGAAGGA
GGTTGCACGTGAACAT

Relative binding free energy, -0.07 kcal/mol:
ATCGACACGTGGGGCG
AGGCGCACGTGTTTTA
ACGGACACGTGGTTGT
ATATGCACGTGGGGAC
GTGACCACGTGGAGTG
TAGGACACGTGGGCAT

Relative binding free energy, -0.25 kcal/mol:
ATGGGCACGTGCTCGT

Relative binding free energy, -0.39 kcal/mol:
TAGGGCACGTGCGCGT

Relative binding free energy, 0.43 kcal/mol:
TTGAACACGTGAATTG

Relative binding free energy, 0.16 kcal/mol:
TTAATCACGTGTGAGA
GTGGGCACGTGATTAA
TTTATCACGTGTGTAT
ATAGTCACGTGGTTTC
GTTTCCACGTGCGAGG
GCGTACACGTGTGTAT

Relative binding free energy, 0.51 kcal/mol:
TAGGACACGTGAAATT

Relative binding free energy, 0.03 kcal/mol:
CTATACACGTGTTTGT
CATAGCACGTGTGGTA
TTTAGCACGTGATGTT
ATTGGCACGTGAGTAA

Relative binding free energy, 0.38 kcal/mol:
GGGGACACGTGAAGTT
GGATTCACGTGAGTCT
GGTTTCACGTGCAGTT

Relative binding free energy, -0.05 kcal/mol:
TTATACACGTGGGGAT
AGTGGCACGTGGTTGG

Relative binding free energy, -0.16 kcal/mol:
AGTGCCACGTGCGGGT
TGGGGCACGTGGTGTA
TTAAGCACGTGGATGG
TTGTCCACGTGGCGGT

Relative binding free energy, 0.41 kcal/mol:
GGTTTCACGTGAGCAT

Relative binding free energy, 0.2 kcal/mol:
AGAGTCACGTGGAGAA
GGTGTCACGTGAGCTG
GGTGTCACGTGAAGTA

Relative binding free energy, 0.29 kcal/mol:
TTTGACACGTGAATGA
TTGTTCACGTGTTAGT

Relative binding free energy, -0.21 kcal/mol:
CGAGTCACGTGGGGCT

Relative binding free energy, -0.19 kcal/mol:
TATGACACGTGCTTTG

Relative binding free energy, -0.09 kcal/mol:
ATGGGCACGTGTAGGA
AAGGACACGTGGGTGG
TCGAGCACGTGTGGTA
GGAGGCACGTGTTATA

Relative binding free energy, 0.28 kcal/mol:
TGTTTCACGTGCAGAG

Relative binding free energy, 0.07 kcal/mol:
ATTCTCACGTGGGATA
GAATACACGTGTGGTG

Relative binding free energy, 0.15 kcal/mol:
TTTCACACGTGCAGTG
AGTGTCACGTGTCCTG
ATTCTCACGTGGGGTG
TTGGCCACGTGTGAGG
GAACTCACGTGGGGTA

Relative binding free energy, 0.18 kcal/mol:
AATGACACGTGAGGGA
GGGATCACGTGGATTG
GCCGTCACGTGGTGCG
GTGGTCACGTGTTCTG
GATATCACGTGGCGTT
ATATTCACGTGTCGTA

Relative binding free energy, 0.53 kcal/mol:
TAAATCACGTGAGGAT

Relative binding free energy, 0.14 kcal/mol:
GAGGTCACGTGGTGTG
GTAGTCACGTGTGTCG
GGTCACACGTGTTGTA
TTTTTCACGTGGCACT
TTTGCCACGTGAAAGT
ATGGTCACGTGGATAA

Relative binding free energy, 0.17 kcal/mol:
TTAGGCACGTGAAGGG
GGTGTCACGTGTGGTA
TCTTTCACGTGTTTTA
CTCGTCACGTGGTTGA
GATTACACGTGGATGT
TTAATCACGTGTTGGG
TCGGTCACGTGTAGTA
AAATGCACGTGTAAGT

Relative binding free energy, -0.01 kcal/mol:
AAGAGCACGTGATGGA
ATGGGCACGTGTGACA
ATTTGCACGTGTTAAA
TCATACACGTGGTTTG

Relative binding free energy, -0.27 kcal/mol:
TGGCGCACGTGGGGGA

Relative binding free energy, 0.23 kcal/mol:
ATGTTCACGTGACGTA
CCGTTCACGTGGGATG
GATTACACGTGTTGTA
GTTCTCACGTGAGTTG

Relative binding free energy, -0.29 kcal/mol:
TGCGGCACGTGGGCTA
TGTGGCACGTGGACCG

Relative binding free energy, -0.11 kcal/mol:
GATGGCACGTGGGTTT

Relative binding free energy, 0.19 kcal/mol:
TGTTACACGTGTATTG
TTGTTCACGTGGATAG

Relative binding free energy, 0.02 kcal/mol:
AAGTGCACGTGTGGTA
GGTAGCACGTGCGGGA
GCTGGCACGTGGACGT
AATGGCACGTGTGTAG
AGTTACACGTGGGGCT
TTGAACACGTGCGAGG
TGTTACACGTGGCTGG
TGTCGCACGTGGAGAG
GACGACACGTGGGTGT
CGGTCCACGTGTGGGG

Relative binding free energy, 0 kcal/mol:
CTTAGCACGTGCAGGT
GTTAACACGTGTGTTA
GGGTGCACGTGGGAAC
GTAGACACGTGTATGG
GTGCGCACGTGCGTAG
GGGTGCACGTGCAAGA
CGGGTCACGTGTATTG
GGCGGCACGTGGACGT
GTGTCCACGTGGTGGG

Relative binding free energy, 0.34 kcal/mol:
TAATTCACGTGTTAGG

Relative binding free energy, 0.31 kcal/mol:
TTAATCACGTGTGGTC
TTGTTCACGTGTAAAG
